Assay [1] relates to Acinetobacter baumannii AB6870155. Kind of assay: respiration area under curve on compound as sole carbon source (Biolog PM, 48 h) (arbitrary Omnilog units x h (AUC)); higher = more carbon source utilisation / respiration. Conditions: Biolog inoculating fluid, temperature: 37 °C.
The test system of assay [2] is Klebsiella pneumoniae KP6870155. The assay is described as above. Conditions: Biolog inoculating fluid, temperature: 37 °C.

The source of these data is the supplement of paper PMC9911699.

Molecules are shown by their SMILES. The list shows a part of the results.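 The calls were made as follows: active = average curve height above 101 Omnilog units; inactive = average height at or below 101.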 Single values are uncertain, as repeats are few or missing.

Take `NCCc1ccc(O)cc1` [Tyramine]: the “respiration area under curve” value is inactive: 2920 in assay [1] and active: 10400 in assay [2].
On to `N#C[C@H](O[C@@H]1O[C@H](CO[C@@H]2O[C@H](CO)[C@@H](O)[C@H](O)[C@H]2O)[C@@H](O)[C@H](O)[C@H]1O)c1ccccc1` [Amygdalin], for which the “respiration area under curve” value in assay [1] is inactive: 1480; in assay [2], inactive: 5350.
As for `NCC(O)c1ccc(O)cc1` (racemic) [D,L-Octopamine], the “respiration area under curve” value in assay [1] was inactive: 1310; in assay [2], active: 11300.
For `O=C(O)CC(Br)C(=O)O` (stereo not drawn) [Bromo Succinic Acid], the “respiration area under curve” value in assay [1] was inactive: 7560; in assay [2] it was active: 8110.
